In patent publication CN117126289A (SUNSHINE GUOJIAN PHARMACEUTICAL SHANGHAI CO LTD, dated 2023):

Target: T1, 重组Human-TROP-2-HIS蛋白 (human, UniProt P09758 27-274, limits assumed)
T1 construct: Bought protein; also called TROP-2-HIS蛋白 (恺佧, TRP-HM121); not shown: His tag
T1 sequence (looked up): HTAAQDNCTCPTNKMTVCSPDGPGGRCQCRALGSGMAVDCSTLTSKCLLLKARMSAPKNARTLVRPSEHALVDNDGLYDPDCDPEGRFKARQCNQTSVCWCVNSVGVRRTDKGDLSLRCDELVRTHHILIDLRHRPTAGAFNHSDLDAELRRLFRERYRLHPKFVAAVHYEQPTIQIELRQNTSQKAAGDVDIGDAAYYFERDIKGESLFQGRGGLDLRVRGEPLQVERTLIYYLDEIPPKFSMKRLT
Test: ELISA, coated TROP-2-HIS 200 ng/ml, HRP goat anti-human Fc

B1: 抗TROP-2/CD3双特异性抗体a (bispecific antibody)
heavy: QVQLVQSGPEVKKPGASVKVSCKASGYTFTDYWLGWVRQAPGQGLEWMGNIFPGSAYINYNEKFKGKVTITADTSTSTAYMELSSLRSEDTAVYFCAREGSNSGYWGQGTLVTVSSASTKGPSVFPLAPSSKSTSGGTAALGCLVKDYFPEPVTVSWNSGALTSGVHTFPAVLQSSGLYSLSSVVTVPSSSLGTQTYICNVNHKPSNTKVDKKVEPKSCGGGGSGGGGSGGGGSEVQLVESGGGLVQPGGSLRLSCAASGFTFNTYAMNWVRQAPGKGLEWVARIRSKYNNYATYYADSVKDRFTISRDDSKNTLYLQMNSLRAEDTAVYYCVRHGNFGNSYVSWFAYWGQGTLVTVSSGGGGSGGGGSGGGGSGGGGSQAVVTQEPSLTVSPGGTVTLTCRSSTGAVTTSNYANWVQQKPGQAPRGLIGGTNKRAPGVPARFSGSLLGGKAALTLSGAQPEDEAEYYCALWYSNLWVFGQGTKVEIKRGGGG[sequence of human IgG1 Fc not given]
light: DIVMTQSPDSLAVSLGERATINCKSSQSLLNSGNQQNYLAWYQQKPGQPPKLLIYGASTRESGVPDRFSGSGSGTDFTLTISSLQAEDVAVYYCQSDHIYPYTFGQGTKLEIKRTVAAPSVFIFPPSDEQLKSGTASVVCLLNNFYPREAKVQWKVDNALQSGNSQESVTEQDSKDSTYSLSSTLTLSKADYEKHKVYACEVTHQGLSSPVTKSFNRGEC
notes: Anti-TROP-2 IgG (VH I31D) with an anti-CD3 scFv (VH-L1-VL) in each heavy chain between CH1 and CH2; also called 抗TROP-2/CD3双抗a; 双特异性抗体分子a
EC50: 16.5 pM

B2: 抗TROP-2/CD3双特异性抗体c (bispecific antibody, human IgG1, kappa)
heavy: EVQLVESGGGLVQPGGSLRLSCAASGFTFNTYAMNWVRQAPGKGLEWVARIRSKYNNYATYYADSVKDRFTISRDDSKNTLYLQMNSLRAEDTAVYYCVRHGNFGNSYVSWFAYWGQGTLVTVSSGGGGSGGGGSGGGGSGGGGSQAVVTQEPSLTVSPGGTVTLTCRSSTGAVTTSNYANWVQQKPGQAPRGLIGGTNKRAPGVPARFSGSLLGGKAALTLSGAQPEDEAEYYCALWYSNLWVFGQGTKVEIKRGGGGSGGGGSGGGGSQVQLVQSGPEVKKPGASVKVSCKASGYTFTDYWLGWVRQAPGQGLEWMGNIFPGSAYINYNEKFKGKVTITADTSTSTAYMELSSLRSEDTAVYFCAREGSNSGYWGQGTLVTVSS[sequence of human IgG1 constant region not given]
light: B1 light
notes: Anti-TROP-2 IgG (VH I31D) with an anti-CD3 scFv at the N-terminus of each heavy chain; also called 抗TROP-2/CD3双抗c; 双特异性抗体分子c
EC50: 18.8 pM
